# Measured values as given in the supplement of paper PMC8728848.
# The list shows a part of the results.
# B1: AAL (Aleuria aurantia), P18891 (protein)
# chain: PTEFLYTSKIAAISWAATGGRQQRVYFQDLNGKIREAQRGGDNPWTGGSSQNVIGEAKLFSPLAAVTWKSAQGIQIRVYCVNKDNILSEFVYDGSKWITGQLGSVGVKVGSNSKLAALQWGGSESAPPNIRVYYQKSNGSGSSIHEYVWSGKWTAGASFGSTVPGTGIGATAIGPGRLRIYYQATDNKIREHCWDSNSWYVGGFSASASAGVSIAAISWGSTPNIRVYWQKGREELYEAAYGGSWNTPGQIKDASRPTPSLPDTFIAANSSGNIDISVFFQASGVSLQQWQWISGKGWSIGAVVPTGTPAGW
# How the values were obtained:
# Experiment in all cases: glycan array binding signal (z-score within array); higher = stronger binding
# Conditions in all cases: glycan notation: IUPAC condensed, linker removed
# Gal(a1-3)Gal = biological target: Gal(a1-3)Gal
# How it was run: (§1)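 Glycan array data came from 3228 arrays in the Consortium for Functional Glycomics database, and only arrays with an available protein sequence were kept. Glycan names were put into IUPAC-condensed notation, and columns mapping to the same glycan were averaged. The binding signal is a within-array Z-score, averaged across arrays of one protein sequence run at different concentrations or buffers and across linkers. A negative Z-score can be read as non-binding.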
# Gal(a1-3)Gal(b1-3)Glc = biological target: Gal(a1-3)Gal(b1-3)Glc
# How it was run: as §1
# Gal(a1-3)Gal(b1-3)GlcNAc = biological target: Gal(a1-3)Gal(b1-3)GlcNAc
# How it was run: as §1
# [1] = biological target: Gal(a1-3)Gal(b1-3)GlcNAc(b1-2)Man(a1-3)[Gal(a1-3)Gal(b1-3)GlcNAc(b1-2)Man(a1-6)]Man(b1-4)GlcNAc(b1-4)GlcNAc
# How it was run: as §1
# [2] = biological target: Gal(a1-3)Gal(b1-3)GlcNAc(b1-3)GalNAc
# How it was run: as §1
# [3] = biological target: Gal(a1-3)Gal(b1-3)[Fuc(a1-4)]GlcNAc(b1-2)Man(a1-3)[Gal(a1-3)Gal(b1-3)[Fuc(a1-4)]GlcNAc(b1-2)Man(a1-6)]Man(b1-4)GlcNAc(b1-4)GlcNAc
# How it was run: as §1
# Gal(a1-3)Gal(b1-4)Glc = biological target: Gal(a1-3)Gal(b1-4)Glc
# How it was run: as §1
# Gal(a1-3)Gal(b1-4)GlcNAc = biological target: Gal(a1-3)Gal(b1-4)GlcNAc
# How it was run: as §1
# [4] = biological target: Gal(a1-3)Gal(b1-4)GlcNAc(b1-3)GalNAc
# How it was run: as §1
# [5] = biological target: Gal(a1-3)Gal(b1-4)[Fuc(a1-3)]GalNAc
# How it was run: as §1
# [6] = biological target: Gal(a1-3)Gal(b1-4)[Fuc(a1-3)]GlcNAc
# How it was run: as §1
# [7] = biological target: Gal(a1-3)Gal(b1-4)[Fuc(a1-3)]GlcNAc(b1-2)Man(a1-3)[Gal(a1-3)Gal(b1-4)[Fuc(a1-3)]GlcNAc(b1-2)Man(a1-6)]Man(b1-4)GlcNAc(b1-4)GlcNAc
# How it was run: as §1
# Gal(a1-3)GalNAc = biological target: Gal(a1-3)GalNAc
# How it was run: as §1
# Gal(a1-3)GlcNAc = biological target: Gal(a1-3)GlcNAc
# How it was run: as §1
# [8] = biological target: Gal(a1-3)[Gal(a1-4)]Gal(b1-4)GlcNAc
# How it was run: as §1
# [9] = biological target: Gal(a1-4)Gal(b1-3)GlcNAc(b1-2)Man(a1-3)[Gal(a1-4)Gal(b1-3)GlcNAc(b1-2)Man(a1-6)]Man(b1-4)GlcNAc(b1-4)GlcNAc
# How it was run: as §1
# Gal(a1-4)Gal(b1-4)Gal = biological target: Gal(a1-4)Gal(b1-4)Gal
# How it was run: as §1
# Gal(a1-4)Gal(b1-4)GalNAc = biological target: Gal(a1-4)Gal(b1-4)GalNAc
# How it was run: as §1
# Gal(a1-4)Gal(b1-4)Glc = biological target: Gal(a1-4)Gal(b1-4)Glc
# How it was run: as §1
# Gal(a1-4)Gal(b1-4)GlcNAc = biological target: Gal(a1-4)Gal(b1-4)GlcNAc
# How it was run: as §1
# [10] = biological target: Gal(a1-4)Gal(b1-4)GlcNAc(b1-2)Man(a1-3)[Gal(a1-4)Gal(b1-4)GlcNAc(b1-2)Man(a1-6)]Man(b1-4)GlcNAc(b1-4)GlcNAc
# How it was run: as §1
# [11] = biological target: Gal(a1-4)Gal(b1-4)GlcNAc(b1-3)Gal(b1-4)Glc
# How it was run: as §1
# Gal(a1-4)GlcNAc = biological target: Gal(a1-4)GlcNAc
# How it was run: as §1
# Gal(a1-6)Glc = biological target: Gal(a1-6)Glc
# How it was run: as §1
# Gal(b1-2)Gal = biological target: Gal(b1-2)Gal
# How it was run: as §1
# Gal(b1-3)Gal = biological target: Gal(b1-3)Gal
# How it was run: as §1
# Gal(b1-3)Gal(b1-4)GlcNAc = biological target: Gal(b1-3)Gal(b1-4)GlcNAc
# How it was run: as §1
# [12] = biological target: Gal(b1-3)Gal(b1-4)GlcNAc(b1-2)Man(a1-3)[Gal(b1-3)Gal(b1-4)GlcNAc(b1-2)Man(a1-6)]Man(b1-4)GlcNAc(b1-4)GlcNAc
# How it was run: as §1
# Gal(b1-3)GalNAc = biological target: Gal(b1-3)GalNAc
# How it was run: as §1
# [13] = biological target: Gal(b1-3)GalNAc(a1-3)[Fuc(a1-2)]Gal(b1-4)Glc
# How it was run: as §1
# [14] = biological target: Gal(b1-3)GalNAc(a1-3)[Fuc(a1-2)]Gal(b1-4)GlcNAc
# How it was run: as §1
# [15] = biological target: Gal(b1-3)GalNAc(b1-3)Gal(a1-4)Gal(b1-4)Glc
# How it was run: as §1
# [16] = biological target: Gal(b1-3)GalNAc(b1-3)Gal(b1-4)Glc
# How it was run: as §1
# [17] = biological target: Gal(b1-3)GalNAc(b1-3)Gal(b1-4)GlcNAc
# How it was run: as §1
# [18] = biological target: Gal(b1-3)GalNAc(b1-4)Gal(b1-4)Glc
# How it was run: as §1
# [19] = biological target: Gal(b1-3)GalNAc(b1-4)[Neu5Ac(a2-3)]Gal(b1-4)Glc
# How it was run: as §1
# Gal(b1-3)GlcNAc = biological target: Gal(b1-3)GlcNAc
# How it was run: as §1
binder,measurement,setting,value
B1,glycan array binding signal (z-score),Gal(a1-3)Gal,-0.51
same,glycan array binding signal (z-score),Gal(a1-3)Gal(b1-3)Glc,-0.578
same,glycan array binding signal (z-score),Gal(a1-3)Gal(b1-3)GlcNAc,-0.507
same,glycan array binding signal (z-score),[1],-0.415
same,glycan array binding signal (z-score),[2],-0.398
same,glycan array binding signal (z-score),[3],-0.419
same,glycan array binding signal (z-score),Gal(a1-3)Gal(b1-4)Glc,-0.474
same,glycan array binding signal (z-score),Gal(a1-3)Gal(b1-4)GlcNAc,-0.517
same,glycan array binding signal (z-score),[4],-0.439
same,glycan array binding signal (z-score),[5],2.52
same,glycan array binding signal (z-score),[6],1.32
same,glycan array binding signal (z-score),[7],0.279
same,glycan array binding signal (z-score),Gal(a1-3)GalNAc,-0.462
same,glycan array binding signal (z-score),Gal(a1-3)GlcNAc,-0.624
same,glycan array binding signal (z-score),[8],-0.501
same,glycan array binding signal (z-score),[9],-0.418
same,glycan array binding signal (z-score),Gal(a1-4)Gal(b1-4)Gal,-0.611
same,glycan array binding signal (z-score),Gal(a1-4)Gal(b1-4)GalNAc,-0.646
same,glycan array binding signal (z-score),Gal(a1-4)Gal(b1-4)Glc,-0.488
same,glycan array binding signal (z-score),Gal(a1-4)Gal(b1-4)GlcNAc,-0.472
same,glycan array binding signal (z-score),[10],-0.43
same,glycan array binding signal (z-score),[11],-0.418
same,glycan array binding signal (z-score),Gal(a1-4)GlcNAc,-0.498
same,glycan array binding signal (z-score),Gal(a1-6)Glc,-0.515
same,glycan array binding signal (z-score),Gal(b1-2)Gal,-0.493
same,glycan array binding signal (z-score),Gal(b1-3)Gal,-0.522
same,glycan array binding signal (z-score),Gal(b1-3)Gal(b1-4)GlcNAc,-0.411
same,glycan array binding signal (z-score),[12],-0.353
same,glycan array binding signal (z-score),Gal(b1-3)GalNAc,-0.481
same,glycan array binding signal (z-score),[13],-0.418
same,glycan array binding signal (z-score),[14],-0.421
same,glycan array binding signal (z-score),[15],-0.514
same,glycan array binding signal (z-score),[16],-0.595
same,glycan array binding signal (z-score),[17],-0.602
same,glycan array binding signal (z-score),[18],-0.504
same,glycan array binding signal (z-score),[19],-0.511
same,glycan array binding signal (z-score),Gal(b1-3)GlcNAc,-0.476
